From the supplement of paper PMC11417369
± gives the standard deviation of the averaged measurements. The list shows a part of the results.

System: PfAP2-G AP2 domain (GST-tagged)
Test: gcPBM binding intensity (ln(normalized median fluorescence intensity)); higher = stronger DNA binding
Method in brief: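 Using an Agilent 4 × 180k array, primer-extended double-stranded 36-bp intergenic genomic probes and negative controls were exposed for 1 h to GST-fused P. falciparum DNA-binding domains expressed in E. coli. Binding was carried out in 1× PBS with 1% milk, 0.2 mg/ml BSA, 0.5% salmon testes DNA and 0.03% Triton X-100, and protein was detected with Alexa488 anti-GST antibody and a 488 nm scan. Binding intensity is the highest Masliner-normalised natural-log median intensity across replicate spots of either probe orientation.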

**Q.** Which “gcPBM binding intensity (ln)” value does the source give for “TATATATAGAAACACACACACACCAAAGCGTAGCGC [CACACA_site62]” here?
**A.** 9.95 ± 0.028

**Q.** With “ATTTACAAAAGGAAAGTGCAAACATGTGATTAAACA [CACACA_negctrl_site714]” as the sequence, how does the “gcPBM binding intensity (ln)” value read?
**A.** 10.14 ± 0.085

**Q.** For “AAAAATGAATTATTTTGTACATATATATATATATAT [XGTACX_site3410]”, which “gcPBM binding intensity (ln)” value is on record?
**A.** 10.6 ± 0.49

**Q.** Which “gcPBM binding intensity (ln)” value does the source give for “AATAATTGTTAAAGTTGTACTATACGTATATAAGAA [XGTACX_site1432]” here?
**A.** 11.2 ± 0.54

**Q.** How did the “gcPBM binding intensity (ln)” value turn out when “CATTATCATGTTTTTTGTACTCATAATAAAAAGCAG [XGTACX_site2056]” was run?
**A.** 11.3 ± 0.85

**Q.** With “CAAGGAACCGGACACACACACATAAATGTATTTATA [CACACA_site4574]” as the sequence, how does the “gcPBM binding intensity (ln)” value read?
**A.** 10.7 ± 0.38

**Q.** “ACATATGACTATAATACACACTTGTATTATTAATAT [CACACA_site6951]” was tested. Which “gcPBM binding intensity (ln)” value did it give?
**A.** 9.98 ± 0.13

**Q.** “AACTTATTTAAATTCACACATATATAAAATACTTAT [CACACA_site4394]” was tested. Which “gcPBM binding intensity (ln)” value did it give?
**A.** 9.98 ± 0.028

**Q.** “ATCAATTTAATTTATTGTACTTGTTTGTTTTTTTAT [XGTACX_site7544]” was tested. Which “gcPBM binding intensity (ln)” value did it give?
**A.** 11.2 ± 0.7

**Q.** How did the “gcPBM binding intensity (ln)” value turn out when “GATAACATAATATGTTGTACATAAAAATTTTTATCA [XGTACX_site1969]” was run?
**A.** 11.2 ± 0.76

**Q.** How did the “gcPBM binding intensity (ln)” value turn out when “ATAAAGATATGACACACACACATATTATAGATATAT [CACACA_site7434]” was run?
**A.** 10.12 ± 0.085

**Q.** How did the “gcPBM binding intensity (ln)” value turn out when TATGTTTTTACGTGTGTGCACTTTGTAGAGATAAGT was run?
**A.** 10.5 ± 0.33

**Q.** Which “gcPBM binding intensity (ln)” value does the source give for “ATTTTAATTACATATACACACAAAGGTTCATAACAA [CACACA_site9008]” here?
**A.** 10.2 ± 0.28

**Q.** For “TAATTTAAACAAAAAAGTACAAATTTCTTTTTATTA [XGTACX_site5244]”, which “gcPBM binding intensity (ln)” value is on record?
**A.** 11.2 ± 1

**Q.** With “ATTATTTTATTATAGTGTACTTTTTTAATCAAAGGA [XGTACX_site8921]” as the sequence, how does the “gcPBM binding intensity (ln)” value read?
**A.** 11.5 ± 0.93

**Q.** With “AATTTTATTACTTTTACACACCTATATATTATTCAT [CACACA_site3273]” as the sequence, how does the “gcPBM binding intensity (ln)” value read?
**A.** 10.1

**Q.** For “TTTTAAAAAAAATATAAAAAAAGAGGAGGGATGGTA [GTGCAC_negctrl_site35]”, which “gcPBM binding intensity (ln)” value is on record?
**A.** 9.67 ± 0.071

**Q.** Which “gcPBM binding intensity (ln)” value does the source give for “TACTCATAATATTGATAATTAAAAAGATAAACTATT [XGTACX_negctrl_site299]” here?
**A.** 9.83 ± 0.11

**Q.** “AAGAGTAAAATATGGTTGCACTAAAAATATATATTT [GTGCAC_site9484]” was tested. Which “gcPBM binding intensity (ln)” value did it give?
**A.** 10.2 ± 0.21

**Q.** How did the “gcPBM binding intensity (ln)” value turn out when “TATATTTGTTGACACACACACAAAAAAAAAAAAAAA [CACACA_site7211]” was run?
**A.** 10.2 ± 0.57

**Q.** For “GTCTACTACACTAAATGTACAAGAAAAAAGAAAAAA [XGTACX_site4660]”, which “gcPBM binding intensity (ln)” value is on record?
**A.** 11 ± 0.71

**Q.** “TTATAGAGCTTATTCACACATACATATGTATTTATA [CACACA_site5775]” was tested. Which “gcPBM binding intensity (ln)” value did it give?
**A.** 9.92 ± 0.16

**Q.** Which “gcPBM binding intensity (ln)” value does the source give for “ATAATAAAAATATACTGTACATTTGTAAATTCTTTT [XGTACX_site4655]” here?
**A.** 10.7 ± 0.47

**Q.** Which “gcPBM binding intensity (ln)” value does the source give for “TATATATATATATAATGTACACATTTTTATAACTAT [XGTACX_site5714]” here?
**A.** 11.3 ± 0.73

**Q.** With “AAAGATGGAAAAAAAAATTTGTGTGTTGAAAGATAT [GTGCAC_negctrl_site19]” as the sequence, how does the “gcPBM binding intensity (ln)” value read?
**A.** 9.98 ± 0.028

**Q.** With “AAAATACAATTTCTAGCACACAAAATATTATTATAA [CACACA_site9056]” as the sequence, how does the “gcPBM binding intensity (ln)” value read?
**A.** 9.88 ± 0.11

**Q.** For “GCGTTGTTTTTAAAAAGTACATTTTTATATAAGTTA [XGTACX_site8780]”, which “gcPBM binding intensity (ln)” value is on record?
**A.** 11.2 ± 0.86

**Q.** How did the “gcPBM binding intensity (ln)” value turn out when “TATAAAATTCTGACTTGTACATGTGAAAAATAATTA [XGTACX_site1396]” was run?
**A.** 11 ± 0.52

**Q.** With “CTTAATATATGTGGCACACATGTGGAGTCCTATTAA [CACACA_site4281]” as the sequence, how does the “gcPBM binding intensity (ln)” value read?
**A.** 10.7 ± 0.47

**Q.** For TATTATTCAAAATTTGTGCACAAAATTAAAGGAACA, which “gcPBM binding intensity (ln)” value is on record?
**A.** 10.5 ± 0.35

**Q.** Which “gcPBM binding intensity (ln)” value does the source give for “TTTTTAAATAAATGTTTTTATTATATACATATCAAT [TGCATGCA_negctrl_site423]” here?
**A.** 9.74 ± 0.071

**Q.** With “AAAATAATGTATATAGTGCAAATGAAAACGAAAAAA [GTGCAC_site9455]” as the sequence, how does the “gcPBM binding intensity (ln)” value read?
**A.** 10.17 ± 0.071

**Q.** “CATAATAAGTATAACGTTAGTTACAAACAGCTTGTT [CACACA_negctrl_site937]” was tested. Which “gcPBM binding intensity (ln)” value did it give?
**A.** 9.92 ± 0.085

**Q.** With “TTTGTTTTTTTGAGAGTGCAATATATATAAAAAGGG [GTGCAC_site9691]” as the sequence, how does the “gcPBM binding intensity (ln)” value read?
**A.** 10.5 ± 0.47

**Q.** Which “gcPBM binding intensity (ln)” value does the source give for “TTGGTGATATTTTTCTCACACATTTACCAGAGATGT [CACACA_site4684]” here?
**A.** 9.995 ± 0.035

**Q.** “TTTTTATTTTTTTACAGTACATAAAATAAATAAATA [XGTACX_site6596]” was tested. Which “gcPBM binding intensity (ln)” value did it give?
**A.** 11.1 ± 0.91

**Q.** How did the “gcPBM binding intensity (ln)” value turn out when “TTTTTTTTATGGAAACGTACATACATACATTAAAGA [XGTACX_site7401]” was run?
**A.** 11.3 ± 0.95

**Q.** Which “gcPBM binding intensity (ln)” value does the source give for “GTAGATATTTATTGAGTGCATGTTATAAAGGGAAAA [GTGCAC_site9481]” here?
**A.** 10.21 ± 0.035

**Q.** How did the “gcPBM binding intensity (ln)” value turn out when “TATATTGATGATGATAGTACGTATGAATACAAAAAA [XGTACX_site4]” was run?
**A.** 11 ± 0.65

**Q.** “TATTTATATATTTATGCATGTTATAGGCAAAAATGT [TGCATGCA_site397]” was tested. Which “gcPBM binding intensity (ln)” value did it give?
**A.** 10 ± 0.16

**Q.** For “CACCCACCCAGACACACACACACACCCCCACCCATA [CACACA_site367]”, which “gcPBM binding intensity (ln)” value is on record?
**A.** 11.1 ± 0.62

**Q.** How did the “gcPBM binding intensity (ln)” value turn out when “TTTTTTTGCATGAGCAATAAAAAAGGCTTGTTCAAA [CACACA_negctrl_site1615]” was run?
**A.** 9.74 ± 0.16

**Q.** For “AATTATTTATTGAGAGTGCAACAAATTATTTCAAAT [GTGCAC_site9461]”, which “gcPBM binding intensity (ln)” value is on record?
**A.** 10.1 ± 0.22

**Q.** With “ACATTTTAAATACGATGTACTTGAGTTTTTTTTAAA [XGTACX_site5833]” as the sequence, how does the “gcPBM binding intensity (ln)” value read?
**A.** 11 ± 0.53

**Q.** With “TATATGAATAAACATTGTACGTAAATATTAACTATC [XGTACX_site543]” as the sequence, how does the “gcPBM binding intensity (ln)” value read?
**A.** 11.5 ± 1

**Q.** “GAAATAAAAGATGGTTGTACACCGTTTTCTCATATA [XGTACX_site5368]” was tested. Which “gcPBM binding intensity (ln)” value did it give?
**A.** 11.5 ± 0.89

**Q.** Which “gcPBM binding intensity (ln)” value does the source give for “TACATATATGATAAAAGTACATATAAATATACATAA [XGTACX_site3804]” here?
**A.** 11.3 ± 0.87

**Q.** With “TTATATATTAAGAAATGTACGAAAAAAAAAATTATA [XGTACX_site3893]” as the sequence, how does the “gcPBM binding intensity (ln)” value read?
**A.** 10.9 ± 0.53

**Q.** With “AAGATGATAAAATATGTACACACAGTTTATACATTT [CACACA_site9341]” as the sequence, how does the “gcPBM binding intensity (ln)” value read?
**A.** 11.3 ± 0.83

**Q.** For “TATAATAATAATAATAATAATAATAATAATAATAAT [CACACA_negctrl_site905]”, which “gcPBM binding intensity (ln)” value is on record?
**A.** 9.38 ± 0.19

**Q.** Which “gcPBM binding intensity (ln)” value does the source give for “CGCATAAAGACAAGAACACACATATAGATTGTAGTA [CACACA_site3693]” here?
**A.** 9.84 ± 0.19

**Q.** With “TCAATAAGATTATAAAGTACTTTTGAAGATATTATA [XGTACX_site7489]” as the sequence, how does the “gcPBM binding intensity (ln)” value read?
**A.** 10.9 ± 0.47

**Q.** “TTTCTTATTTTTTTCACACACTAAACATTTCAAATG [CACACA_site5259]” was tested. Which “gcPBM binding intensity (ln)” value did it give?
**A.** 10.3 ± 0.21

**Q.** How did the “gcPBM binding intensity (ln)” value turn out when “AAATATTTAAATATTATGTATGATTATATATATATA [CACACA_negctrl_site590]” was run?
**A.** 9.77 ± 0.28

**Q.** Which “gcPBM binding intensity (ln)” value does the source give for “AAATAAATAAATAAATGTACACATATATATATATAT [XGTACX_site7787]” here?
**A.** 11.3 ± 0.67

**Q.** How did the “gcPBM binding intensity (ln)” value turn out when “AAAAAAAAAAAAAAAACACACAAAAGCAAGAAAAAC [CACACA_site3198]” was run?
**A.** 10.3 ± 0.26

**Q.** How did the “gcPBM binding intensity (ln)” value turn out when “AAAGTAAAAACACATACATGCATATACACATATAAC [TGCATGCA_site341]” was run?
**A.** 9.9 ± 0.12
